Experimental data from PubChem BioAssay AID504333 (National Center for Advancing Translational Sciences (NCATS), 2011).
Out of some 360,000 compounds screened, about 16,000 (4.4%) were called active. Inconclusive results, whose numbers are uncertain, are shown with a selection of clear calls. The call rests on the fitted dose curve; in most records, active means well fitted inhibition curve with a large enough effect; inconclusive means small, poorly fitted or top-dose-only effect; inactive means no such curve, though single readings can be large or run the other way. Potencies beside an inconclusive call are fits to weak or partial responses and may not hold up.

These compounds were tested against Bromodomain adjacent to zinc finger domain protein 2B (Homo sapiens) (UniProt Q9UIF8) (assay: qHTS Assay for Inhibitors of BAZ2B). Conditions: AlphaScreen BAZ2B-H3K14Ac peptide displacement; series mostly up to 114 µM.
How it was run: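 Complex of BAZ2B and biotin-H3K14Ac (50 nM apiece) forms over 30 min at RT, then faces library compounds up to 110 uM for another 30 min; AlphaScreen beads added, 20 min dark incubation, luminescence read.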
Further: nearly all actives have a fitted effect of over 60% in size.
Potency means the concentration at half of the fitted maximal effect; tags describe the fitted curve by direction and shape.

UniProt Q9UIF8, sequence (Q9UIF8 whole entry, looked up, the tested form may be a part): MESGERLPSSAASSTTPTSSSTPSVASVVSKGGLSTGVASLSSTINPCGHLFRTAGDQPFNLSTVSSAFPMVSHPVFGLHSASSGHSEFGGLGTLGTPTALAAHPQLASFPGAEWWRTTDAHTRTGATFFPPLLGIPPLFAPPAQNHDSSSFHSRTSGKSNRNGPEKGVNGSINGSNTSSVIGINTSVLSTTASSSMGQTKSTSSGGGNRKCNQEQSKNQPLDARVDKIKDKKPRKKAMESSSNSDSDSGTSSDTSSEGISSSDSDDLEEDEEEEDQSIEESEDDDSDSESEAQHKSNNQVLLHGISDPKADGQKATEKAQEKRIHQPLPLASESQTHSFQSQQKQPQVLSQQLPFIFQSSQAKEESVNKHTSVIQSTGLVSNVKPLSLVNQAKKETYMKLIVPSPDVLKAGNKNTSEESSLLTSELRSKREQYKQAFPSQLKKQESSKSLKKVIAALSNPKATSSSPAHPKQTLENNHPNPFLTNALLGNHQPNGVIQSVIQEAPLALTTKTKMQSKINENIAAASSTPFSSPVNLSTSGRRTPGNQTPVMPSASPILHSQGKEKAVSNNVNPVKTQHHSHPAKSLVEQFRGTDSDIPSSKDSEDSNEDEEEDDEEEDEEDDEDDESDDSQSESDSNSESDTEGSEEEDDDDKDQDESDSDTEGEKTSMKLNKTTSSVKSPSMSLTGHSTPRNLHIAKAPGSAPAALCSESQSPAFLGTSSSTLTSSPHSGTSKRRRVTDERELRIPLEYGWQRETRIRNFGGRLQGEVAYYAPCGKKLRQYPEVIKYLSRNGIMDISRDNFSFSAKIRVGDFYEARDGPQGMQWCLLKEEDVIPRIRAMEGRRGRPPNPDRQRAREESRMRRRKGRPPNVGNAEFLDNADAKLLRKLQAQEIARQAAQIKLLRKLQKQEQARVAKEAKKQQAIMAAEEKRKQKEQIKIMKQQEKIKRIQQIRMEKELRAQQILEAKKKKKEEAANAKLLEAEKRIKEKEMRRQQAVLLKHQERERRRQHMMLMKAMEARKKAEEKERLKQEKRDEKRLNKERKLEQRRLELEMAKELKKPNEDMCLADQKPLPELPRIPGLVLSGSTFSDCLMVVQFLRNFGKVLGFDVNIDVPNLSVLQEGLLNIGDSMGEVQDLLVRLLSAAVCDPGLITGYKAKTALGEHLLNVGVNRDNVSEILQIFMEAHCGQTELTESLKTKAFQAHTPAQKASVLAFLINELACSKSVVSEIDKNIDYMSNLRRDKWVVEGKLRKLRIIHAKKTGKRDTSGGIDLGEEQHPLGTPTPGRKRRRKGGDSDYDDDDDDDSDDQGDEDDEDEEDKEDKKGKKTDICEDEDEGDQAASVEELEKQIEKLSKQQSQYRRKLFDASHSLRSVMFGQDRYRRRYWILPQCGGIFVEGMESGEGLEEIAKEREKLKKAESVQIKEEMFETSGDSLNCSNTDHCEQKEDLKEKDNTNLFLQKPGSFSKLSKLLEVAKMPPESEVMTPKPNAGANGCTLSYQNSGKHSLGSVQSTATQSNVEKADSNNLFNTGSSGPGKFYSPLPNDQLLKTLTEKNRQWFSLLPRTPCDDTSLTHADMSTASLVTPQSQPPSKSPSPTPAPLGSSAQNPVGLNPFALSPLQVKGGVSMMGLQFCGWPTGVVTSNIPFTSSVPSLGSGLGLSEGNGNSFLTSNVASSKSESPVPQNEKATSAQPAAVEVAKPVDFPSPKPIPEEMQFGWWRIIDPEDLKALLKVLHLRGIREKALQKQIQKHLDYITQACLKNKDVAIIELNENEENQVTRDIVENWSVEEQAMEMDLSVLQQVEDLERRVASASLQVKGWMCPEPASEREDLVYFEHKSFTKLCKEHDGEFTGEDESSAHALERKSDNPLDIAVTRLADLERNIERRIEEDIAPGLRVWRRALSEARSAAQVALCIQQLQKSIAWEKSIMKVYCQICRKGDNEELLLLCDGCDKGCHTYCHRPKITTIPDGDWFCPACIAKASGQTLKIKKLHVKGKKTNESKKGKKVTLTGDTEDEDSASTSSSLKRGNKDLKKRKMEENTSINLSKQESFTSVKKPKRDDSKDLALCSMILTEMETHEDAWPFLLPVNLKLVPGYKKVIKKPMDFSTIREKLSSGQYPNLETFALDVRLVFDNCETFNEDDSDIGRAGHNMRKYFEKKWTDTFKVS

| Structure (SMILES) | Potency |
| --- | --- |
| Cc1cc(NC(=O)c2cc(-c3ccco3)on2)nn1Cc1ccc(Cl)cc1 | inconclusive: 89.1 µM [inhibitor, single point] |
| O=C(c1nn(Cc2ccccc2)c(=O)c2ccccc12)N1CCN(C/C=C/c2ccccc2)CC1 | inconclusive: 50.1 µM [inhibitor, partial curve] |
| Cc1ccc(-c2c3c(=O)n(C)c(=O)n(C)c3cn2N2CCOCC2)cc1 | inconclusive: 89.1 µM [inhibitor, single point] |
| Cc1cc(C(=O)CSc2n[nH]c(N)n2)c(C)n1-c1ccc(F)cc1 | inconclusive: 79.4 µM [inhibitor, single point] |
| CSCCC(C)N1CCC(Oc2ccc(C(=O)N3CCCC3)cc2)CC1 (configuration not stated) | inconclusive: 1.12 µM [inhibitor, full curve, poor fit] |
| CCCCCCc1cc2cc(-c3cn4c(n3)sc3cc(OC)ccc34)c(=O)oc2cc1O | inactive |
| CCOC(=O)c1cc2c(=O)n3ccccc3nc2n(Cc2ccco2)c1=NC(=O)c1ccc(F)cc1 | inactive |
| CC(NC(=O)/C(C#N)=C/c1ccc([N+](=O)[O-])o1)c1ccccc1 (configuration not stated) | inconclusive: 50.1 µM [inhibitor, partial curve] |
| Cn1c(NCc2ccco2)nc2c1c(=O)n(Cc1ccc(Cl)c(Cl)c1)c(=O)n2C | inconclusive: 89.1 µM [inhibitor, single point] |
| CCN(Cc1ccccc1)C(=O)c1ccc(CS(=O)c2ccccc2C)o1 (configuration not stated) | inconclusive: 89.1 µM [inhibitor, partial curve] |
| COc1ccc(NC(=O)C2CC(c3ccc(Cl)cc3)=NO2)cc1OC (configuration not stated) | inactive |
| Cc1nc(-c2ccccc2)sc1C1(C)CC(c2cccc([N+](=O)[O-])c2)=NO1 (configuration not stated) | inconclusive: 50.1 µM [inhibitor, partial curve] |
| O=C(NCc1ccco1)c1cccc(NC(=O)c2ccco2)c1 | inactive |
| COC(=O)c1ccc(NC(=S)NC(=O)c2cccnc2)cc1 | inactive |
| Cc1ccc(C(=O)c2sc(Nc3ccc(F)cc3)nc2N)c(C)c1 | active: 39.8 µM |
| S=c1[nH]nc(COc2ccc(Cl)cc2)n1-c1ccc(Cl)cc1 | inconclusive: 79.4 µM [inhibitor, single point] |
| CC(C)c1ccc(NC(=O)C(c2ccc3c(c2)OCO3)N2CCCCC2)cc1 (configuration not stated) | inactive |
| COC(=O)c1scc(-c2ccc(C)cc2)c1S(=O)(=O)N1CCN(c2ccccc2F)CC1 | inconclusive: 100 µM [inhibitor, single point] |
| Cc1c(C(=O)OCC(=O)Nc2ccc(N3CCOCC3)cc2)oc2ccccc12 | inactive |

| Structure (SMILES) | Potency |
| --- | --- |
| O=C1/C(=C\c2ccc3c(c2)OCO3)CCC/C1=C/c1ccc2c(c1)OCO2 | active: 25.1 µM |
| COc1cc(N=c2c([N+](=O)[O-])nn(-c3ccc4c(c3)OCCO4)n2O)cc(OC)c1 | inconclusive: 22.4 µM [inhibitor, full curve] |
| O=C(COC(=O)c1ccc([N+](=O)[O-])s1)NCc1ccccc1 | inactive |
| COc1cc(CNc2cc(C)ccc2C)cc(OC)c1OC | inconclusive: 70.8 µM [inhibitor, single point] |
| Cc1cc(-c2csc(N)n2)c(C)n1Cc1ccccc1 | inconclusive: 50.1 µM [inhibitor, partial curve] |
| COc1ccc2ccccc2c1CNCc1ccc(C)cc1 | inconclusive: 89.1 µM [inhibitor, single point] |
| O=C(CO/N=C/c1cccc([N+](=O)[O-])c1)NC1CCCCCC1 | inactive |
| CCOC(=O)c1cnn(-c2cc(Oc3ccccc3C)ncn2)c1N | inactive |
| CCN1CCOC(=O)C1CC(=O)Nc1cc(Cl)ccc1C (configuration not stated) | inactive |
| Cc1[nH]c2ccccc2c1/C=N/Nc1ccccc1[N+](=O)[O-] | active: 5.62 µM |
| c1ccc(-c2nnc(-c3ccccn3)nc2NC2CCCCC2)cc1 | active: 1.78 µM |
| Cc1ccnc(NC(c2cccnc2)c2ccc3cccnc3c2O)c1 (configuration not stated) | active: 7.08 µM |
| CCn1c(CNc2ccc(C)cc2C)nnc1SCC(=O)N1CCCc2ccccc21 | inconclusive: 89.1 µM [inhibitor, single point] |
| Cc1nnc(NC(=O)CSc2nnc(CNC(=O)c3ccc(S(=O)(=O)N(C)C)cc3)o2)s1 | inconclusive: 1.58 µM [inhibitor, full curve, poor fit] |
| Nc1ccc(N=Nc2ccc(N)cc2)cc1 | inconclusive: 79.4 µM [inhibitor, single point] |
| CCCN1CCN(C(=O)Cn2ncc3c4ccccc4n(Cc4cccc(Cl)c4)c3c2=O)CC1 | inactive |
| O=S(=O)(c1ccccc1)c1nc(-c2ccccc2Cl)oc1NCCN1CCOCC1 | inconclusive: 89.1 µM [inhibitor, single point] |
| Cc1ccc(C)c(N2CCN(S(=O)(=O)c3c(C(=O)N4CCCCC4)c(C)n(C)c3C)CC2)c1 | inconclusive: 44.7 µM [inhibitor, partial curve] |
